Data published in PMC8600046.
These are yes or no findings as the source states them, for the method shown. In cells and extracts the contact can be indirect. Some results given as binding are weak or reduced against the parent protein; the word gives no strength.

The chains behind the UniProt entries cited, without tags or fusion partners.
UniProt P51648: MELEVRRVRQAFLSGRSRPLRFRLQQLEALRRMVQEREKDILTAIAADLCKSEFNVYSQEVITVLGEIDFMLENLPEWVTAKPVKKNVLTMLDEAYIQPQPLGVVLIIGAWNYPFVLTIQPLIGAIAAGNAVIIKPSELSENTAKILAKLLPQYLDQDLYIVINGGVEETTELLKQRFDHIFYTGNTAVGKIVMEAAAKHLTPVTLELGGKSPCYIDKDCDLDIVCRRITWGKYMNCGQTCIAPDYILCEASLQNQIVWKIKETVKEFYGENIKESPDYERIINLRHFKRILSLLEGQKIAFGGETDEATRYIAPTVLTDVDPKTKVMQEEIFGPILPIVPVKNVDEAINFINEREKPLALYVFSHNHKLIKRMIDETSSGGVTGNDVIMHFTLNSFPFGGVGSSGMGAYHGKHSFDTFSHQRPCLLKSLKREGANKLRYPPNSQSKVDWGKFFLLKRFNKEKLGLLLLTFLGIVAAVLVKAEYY
UniProt Q92968: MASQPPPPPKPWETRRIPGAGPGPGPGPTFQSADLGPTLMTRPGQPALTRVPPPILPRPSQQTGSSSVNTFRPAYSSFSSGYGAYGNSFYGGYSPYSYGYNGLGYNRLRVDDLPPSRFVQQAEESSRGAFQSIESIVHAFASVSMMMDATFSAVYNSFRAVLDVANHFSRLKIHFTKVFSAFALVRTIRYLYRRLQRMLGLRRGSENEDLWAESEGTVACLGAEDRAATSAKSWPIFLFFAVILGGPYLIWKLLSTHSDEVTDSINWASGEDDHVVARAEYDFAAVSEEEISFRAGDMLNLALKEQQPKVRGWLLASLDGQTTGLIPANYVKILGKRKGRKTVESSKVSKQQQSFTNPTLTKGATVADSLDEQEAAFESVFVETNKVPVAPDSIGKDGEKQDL

What was measured:
Test in all cases: FRET or BRET; BRET in living HEK293 cells co-transfected with Rluc (donor) and YFP (acceptor) fusions, acceptor to donor ratio 3:1; read 48 h later with coelenterazine 30 μM; all eight combinations of N- or C-terminal fusions tested in duplicates; interaction assumed if at least one combination gave a BRET ratio above the threshold of 0.094
FAR1 = target: T1, FAR1 (UniProt Q8WVX9)
T1 sequence: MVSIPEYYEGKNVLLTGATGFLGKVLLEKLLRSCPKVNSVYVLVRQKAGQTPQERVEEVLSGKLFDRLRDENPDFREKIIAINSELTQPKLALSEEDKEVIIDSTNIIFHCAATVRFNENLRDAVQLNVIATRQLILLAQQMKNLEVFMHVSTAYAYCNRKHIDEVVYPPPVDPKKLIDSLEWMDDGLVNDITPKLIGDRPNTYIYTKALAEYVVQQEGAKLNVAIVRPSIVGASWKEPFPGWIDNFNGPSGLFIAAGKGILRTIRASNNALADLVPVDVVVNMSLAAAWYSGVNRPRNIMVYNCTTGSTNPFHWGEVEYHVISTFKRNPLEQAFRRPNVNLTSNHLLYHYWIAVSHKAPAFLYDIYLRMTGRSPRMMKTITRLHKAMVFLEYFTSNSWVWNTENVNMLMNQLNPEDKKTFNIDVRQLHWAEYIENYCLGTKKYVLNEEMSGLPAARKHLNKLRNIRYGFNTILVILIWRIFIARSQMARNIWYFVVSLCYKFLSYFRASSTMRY

ALDH3A2 = ALDH3A2 (UniProt P51648)
PEX12 = target: T2, PEX12 (UniProt O00623)
T2 sequence: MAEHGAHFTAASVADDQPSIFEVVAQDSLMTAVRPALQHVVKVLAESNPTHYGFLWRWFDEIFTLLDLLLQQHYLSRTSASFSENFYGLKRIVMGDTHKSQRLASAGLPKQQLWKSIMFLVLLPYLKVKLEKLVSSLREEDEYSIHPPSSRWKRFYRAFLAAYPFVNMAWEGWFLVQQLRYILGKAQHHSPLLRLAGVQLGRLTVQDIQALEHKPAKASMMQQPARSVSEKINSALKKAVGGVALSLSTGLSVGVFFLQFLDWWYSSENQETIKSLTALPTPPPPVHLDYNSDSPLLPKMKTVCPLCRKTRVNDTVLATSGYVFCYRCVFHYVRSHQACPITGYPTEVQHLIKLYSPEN

PEX13 = PEX13 (UniProt Q92968)
ABCD3 = target: T3, ABCD3 (UniProt P28288)
T3 sequence: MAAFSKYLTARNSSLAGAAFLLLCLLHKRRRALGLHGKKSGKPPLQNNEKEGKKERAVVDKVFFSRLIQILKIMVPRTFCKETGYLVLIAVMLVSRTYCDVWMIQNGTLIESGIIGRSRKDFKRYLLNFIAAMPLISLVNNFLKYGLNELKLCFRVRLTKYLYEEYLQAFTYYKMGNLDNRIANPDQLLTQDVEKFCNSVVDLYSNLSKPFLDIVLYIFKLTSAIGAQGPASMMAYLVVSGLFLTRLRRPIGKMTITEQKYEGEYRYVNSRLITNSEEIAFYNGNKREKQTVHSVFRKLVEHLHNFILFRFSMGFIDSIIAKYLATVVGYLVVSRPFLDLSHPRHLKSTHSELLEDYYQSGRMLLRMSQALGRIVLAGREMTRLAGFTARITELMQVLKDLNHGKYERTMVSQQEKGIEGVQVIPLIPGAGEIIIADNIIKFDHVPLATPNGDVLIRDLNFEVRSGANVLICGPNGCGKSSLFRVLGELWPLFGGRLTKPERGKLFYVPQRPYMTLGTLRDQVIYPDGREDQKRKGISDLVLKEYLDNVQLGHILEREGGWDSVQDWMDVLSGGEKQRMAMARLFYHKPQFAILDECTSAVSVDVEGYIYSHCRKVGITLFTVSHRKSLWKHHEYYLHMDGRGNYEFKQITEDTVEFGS

ACBD5 = target: T4, ACBD5 (UniProt Q5T8D3)
T4 sequence: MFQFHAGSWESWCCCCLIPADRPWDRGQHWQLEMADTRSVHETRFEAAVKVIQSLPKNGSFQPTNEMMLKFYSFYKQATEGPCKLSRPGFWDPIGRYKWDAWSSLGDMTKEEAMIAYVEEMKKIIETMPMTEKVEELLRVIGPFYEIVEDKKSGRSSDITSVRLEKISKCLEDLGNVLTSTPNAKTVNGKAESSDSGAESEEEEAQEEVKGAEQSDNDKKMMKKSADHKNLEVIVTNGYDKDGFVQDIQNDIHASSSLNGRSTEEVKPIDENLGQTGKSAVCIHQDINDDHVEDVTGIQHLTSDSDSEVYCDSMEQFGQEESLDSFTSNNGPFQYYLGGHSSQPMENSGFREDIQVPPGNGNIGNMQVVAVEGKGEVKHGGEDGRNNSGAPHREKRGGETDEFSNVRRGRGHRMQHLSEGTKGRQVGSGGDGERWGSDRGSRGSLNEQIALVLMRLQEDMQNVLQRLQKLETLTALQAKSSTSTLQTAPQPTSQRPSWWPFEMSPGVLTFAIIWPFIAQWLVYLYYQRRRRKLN

binding (FAR1): binds | binding (ALDH3A2): binds | binding (PEX12): binds | binding (PEX13): binds | binding (ABCD3): no binding | binding (ACBD5): no binding
B1: PEX26 p.Leu153Val (protein, UniProt Q7Z412-1 1-305)
chain: MKSDSSTSAAPLRGLGGPLRSSEPVRAVPARAPAVDLLEEAADLLVVHLDFRAALETCERAWQSLANHAVAEEPAGTSLEVKCSLCVVGIQALAEMDRWQEVLSWVLQYYQVPEKLPPKVLELCILLYSKMQEPGAVLDVVGAWLQDPANQNVPEYGALAEFHVQRVLLPLGCLSEAEELVVGSAAFGEERRLDVLQAIHTARQQQKQEHSGSEEAQKPNLEGSVSHKFLSLPMLVRQLWDSAVSHFFSLPFKKSLLAALILCLLVVRFDPASPSSLHFLYKLAQLFRWIRKAAFSRLYQLRIRD
